As usually defined, the IC50 is the point on the concentration scale where inhibition reaches its midpoint. The low end stands for inhibition by little substance, the high end for a need for much substance.

In the test the target is T1, IL-23R (Homo sapiens, UniProt Q5VWK5).
T1 construct: host or cells: HEK293
T1 sequence (Q5VWK5 24-629): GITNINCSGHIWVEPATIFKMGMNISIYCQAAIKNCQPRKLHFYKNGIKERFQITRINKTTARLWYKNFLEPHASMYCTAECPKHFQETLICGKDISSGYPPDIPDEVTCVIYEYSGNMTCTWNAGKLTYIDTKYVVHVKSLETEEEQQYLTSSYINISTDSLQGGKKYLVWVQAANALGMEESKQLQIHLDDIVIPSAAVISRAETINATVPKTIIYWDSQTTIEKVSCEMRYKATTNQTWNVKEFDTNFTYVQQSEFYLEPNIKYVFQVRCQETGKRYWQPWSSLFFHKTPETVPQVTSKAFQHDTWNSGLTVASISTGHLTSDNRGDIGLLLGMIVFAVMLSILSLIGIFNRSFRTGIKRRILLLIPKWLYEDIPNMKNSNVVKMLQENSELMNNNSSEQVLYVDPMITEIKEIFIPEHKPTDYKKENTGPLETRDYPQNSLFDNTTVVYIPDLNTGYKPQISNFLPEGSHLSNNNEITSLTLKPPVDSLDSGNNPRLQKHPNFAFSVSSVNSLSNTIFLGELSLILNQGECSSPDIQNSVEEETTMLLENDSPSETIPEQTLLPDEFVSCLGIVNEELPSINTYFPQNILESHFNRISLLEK
Put plainly: IL23R Reporter Assay. It is filed as cell-based. To be noted: IL23R Reporter Assay (micromolar), HEK293 cells containing IL-23R, IL-12RP1 and STAT-inducible firefly luciferase reporter; 10 ng/mL IL-23 (EC90); 5 h at 37° C. (In general: Reporter assays use an easily measured gene product as a stand-in for the process of interest.)

`CC(=O)NCCCC[C@@H]1NC(=O)[C@H](Cc2c[nH]c3c(C)cccc23)NC(=O)[C@H]([C@@H](C)O)NC(=O)[C@H](CC(N)=O)NC(=O)[C@@H](NC(C)=O)C(C)(C)SSC(C)(C)[C@@H](C(=O)N[C@@H](Cc2ccc(OCCN)cc2)C(=O)N[C@@H](Cc2ccc3ccccc3c2)C(=O)N[C@@](C)(CCCCN)C(=O)N[C@@H](CCCCNC(C)=O)C(=O)N[C@@H](CC(N)=O)C(=O)N[C@H](Cc2ccc(O)cc2)C(=O)N(C)[C@H](Cc2ccc(O)cc2)C(N)=O)NC1=O` [compound 24, MeCO-Pen(3)-N-T-7MeW-K(Ac)-Pen(3)-AEF-2Nal-aMeK-K(Ac)-N-y-NMeDTyr-CONH2]: it took 0.18 µM to reach half-maximal inhibition (IC50).
Under `CC(=O)NCCCC[C@@H]1NC(=O)[C@H](Cc2c[nH]c3c(C)cccc23)NC(=O)[C@H]([C@@H](C)O)NC(=O)[C@H](CC(N)=O)NC(=O)[C@@H](NC(C)=O)C(C)(C)SSC(C)(C)[C@@H](C(=O)N[C@@H](Cc2ccc(OCCN)cc2)C(=O)N[C@@H](Cc2ccc3ccccc3c2)C(=O)N[C@@](C)(CCCCN)C(=O)N[C@@H](CCCCNC(C)=O)C(=O)N[C@@H](CC(N)=O)C(=O)N[C@@H](C(=O)N(C)[C@H](Cc2ccc(O)cc2)C(N)=O)[C@H](C)O)NC1=O` [compound 15, MeCO-Pen(3)-N-T-7MeW-K(Ac)-Pen(3)-AEF-2Nal-aMeK-K(Ac)-N-t-NMeDTyr-CONH2] stands 0.21 µM.
